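These data come from cells grown in 96-well plates and exposed to compound for 48 hours at five concentrations. GI50 = concentration required for 50% inhibition of growth. TGI denotes the concentration required for complete inhibition of growth.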
These molecules were tested on NCI-H322M lung (assay: DTP human tumour cell line panel, 48 h).

Compound | GI50 [µM] | TGI [µM]
C=C1CC[C@@H]2[C@]3(C)COC(c4cn[nH]c4-c4cccc(Br)c4)O[C@@H]3CC[C@@]2(C)[C@@H]1C/C=C1/C(=O)OCC1O (stereo partly specified) | 5.09 | 18
Cc1ccc(-c2nc(Nc3ccccc3C(=O)O)c3ccccc3n2)cc1 | 13.6 | > 100
N#CC1=C(c2ccco2)Nc2c(c(-c3ccccc3)nn2-c2ccccc2)C12C(=O)Nc1ccc(Br)cc12 (stereo unspecified) | 43.3 | > 100

Source: PubChem BioAssay (NCI)
